# The supplement of paper PMC11417369
# ± gives the standard deviation of the averaged measurements. Some of the results follow.
# Test system: PfAP2-I AP2 domain 3 (GST-tagged)
# Assay: gcPBM binding intensity (ln(normalized median fluorescence intensity)); higher = stronger DNA binding
# How it was run: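 Binding of GST-tagged P. falciparum DNA-binding domains, expressed in E. coli and used at about 25 μg on average, was carried out for 1 h in 1× PBS containing 1% milk, 0.2 mg/ml BSA, 0.5% salmon testes DNA and 0.03% Triton X-100. The target was an Agilent 4 × 180k array of primer-extended double-stranded 36-bp intergenic genomic probes plus negative controls, read with Alexa488 anti-GST antibody at 488 nm. Binding intensity is the highest Masliner-normalised natural-log median intensity across replicate spots of either probe orientation.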
row,Sequence,gcPBM binding intensity (ln)
1,AAAAATGATATGAGTTGTACATAAGTAAGAATTATT [XGTACX_site7089],7.75 ± 0.57
2,TAAAAACGATTTTTTGCACACACATAATAAGCAGAA [CACACA_site3870],9.31 ± 0.29
3,GGACAAGTTAAACGCACACAAATATATACCCCCATA [CACACA_site4996],9.715 ± 0.078
4,ATTATAATTGCATATACACACAAAGGTTCATAACAA [CACACA_site7440],8.05 ± 0.42
5,ACATATATAAAATAATGTACATTTTTAAGAATGCGT [XGTACX_site7654],7.68 ± 0.49
6,AAAAAAAAAAAAAAAAGGGGGGGAGGGATTGAAAAA [CACACA_negctrl_site193],9.64 ± 0.099
7,ACAGTATTTCGAGATGGTACACATATATATATATAT [XGTACX_site6880],9.46 ± 0.38
8,AATGAGGATATATACACACATACATTAAAAAAATAT [CACACA_site1849],7.92 ± 0.77
9,ATGAGTTACATGGGAAAAATATATATATATATATAT [CACACA_negctrl_site579],9.44 ± 0.35
10,TGATAAATATGGAGCACACACACATAAACATACATA [CACACA_site420],8.18 ± 0.26
11,TTTAAAAGATAAAACACACATACTAATAAAAAACAA [CACACA_site2556],7.88 ± 0.52
12,TTGTATCCTTAATGCATGCACCAAATAACAAAAGTA,9.68 ± 0.34
13,TTGTTGTATTATTTATGTACATATGTATATGTATAT [XGTACX_site1315],7.96 ± 0.47
14,AATCCTTACAGACACACACACACGAATAAATAAAAA [CACACA_site480],8 ± 0.3
15,TTATAATTTTTGAGCACACACAAGCATATATATATA [CACACA_site1798],9.475 ± 0.049
16,TATATATGTATATGTGTGCACCTTATTTCTTTTATT [GTGCAC_site9513],10.2 ± 0.15
17,TATGTATTATCAAAAAGTACTAAAAAAAAATAATAA [XGTACX_site4703],7.91 ± 0.54
18,ATAAATGTTATGCATACACACTTTATACCTATTTAA [CACACA_site5967],8.12 ± 0.7
19,CCTTTTAAGAGTTGCACACGTACAAAAAAAAAAAAA [CACACA_site3492],8.68 ± 0.26

row,Sequence,gcPBM binding intensity (ln)
1,ACACATAAATGTATATATATATAAATATATGTATGT [CACACA_negctrl_site1532],7.54 ± 0.3
2,AATAATAAAAAATACGCACACATGTAAACGTATGTT [CACACA_site3336],8.03 ± 0.26
3,GGCGATATAGAACTACGTACTTATACAAATTATAAT [XGTACX_site2307],7.92 ± 0.31
4,ATAGCAATAATGGAAAGTACAAAAAAACTTGTTATA [XGTACX_site8518],7.68 ± 0.64
5,TATATATATATATATAAGCTTATAATAAAACAAAAA [XGTACX_negctrl_site568],9.49 ± 0.52
6,TGTATTAATAAAAATACACACATCATATTATATAAA [CACACA_site3534],7.61 ± 0.41
7,AAAGGGGAGATATGAACACACAAAAAAAAAATATAT [CACACA_site7378],7.9 ± 0.48
8,AGAAAGGATATAAGCGTAGCTATATCATAAAAAATG [GTGCAC_negctrl_site332],7.58 ± 0.74
9,AAATAAAATTTTTGTTGTACTTATTTTTAGTATACT [XGTACX_site4254],7.75 ± 0.38
10,AATATTTACAGACATGCGCACACATAAATAAATAAT [CACACA_site8760],8.46 ± 0.61
11,TATATATATTTTAAATGTACTTATAAATTACCACTT [XGTACX_site5673],8.11 ± 0.34
12,GTATATATATATTTATGTACTTACCTACATAATTAT [XGTACX_site4435],7.81 ± 0.52
13,TAAATAAATTTGCACTGTACGCAAAAAAAAAAAAGA [XGTACX_site8781],10.2 ± 0.6
14,TGAAAAAAAAAATGCACACGCATACATATAATATGT [CACACA_site641],8.37 ± 0.49
15,AAACATAAATATGAGAGTACAAAAAATATTATGAAT [XGTACX_site151],7.96 ± 0.69
16,TTATAATATATTACAAGTTCATTCATATAATATGTT [CACACA_negctrl_site1695],7.43 ± 0.52
17,ATCTCTTAAATTTTACGTACTTATTTTATCTTCTTA [XGTACX_site8877],8.34 ± 0.3
18,AAAAATAAAATATATATATATATATATATATATATA [CACACA_negctrl_site58],9.31 ± 0.64
19,AATAAATACATACATACATGCATACATATATCTCAA [TGCATGCA_site1040],8.09 ± 0.42

row,Sequence,gcPBM binding intensity (ln)
1,TATTTTTATATATATACACACTTACAGATATATATT [CACACA_site5905],7.79 ± 0.64
2,ATATGTAAAATGAAGATACATACATACATACATACA [CACACA_negctrl_site715],8.8 ± 0.41
3,ATATTATATATATGATGTACTAAATATATTATTATG [XGTACX_site1703],7.71 ± 0.18
4,ATGTTATAAAATATATGTACATATTTATATAAAATA [XGTACX_site5766],7.78 ± 0.26
5,TATATAAAAAGTAATTGTACATATATATATATATAT [XGTACX_site7953],9.35 ± 0.45
6,ATATATTTATATAAATGTACACGTGAATATATAATA [XGTACX_site1166],8.08 ± 0.57
7,TTTATATTCTTTTTTTAACACACAAAAAAAATAAAA [CACACA_site8574],7.88 ± 0.29
8,TCTATTAATGAATATACACACATTATATATATATAT [CACACA_site5410],9.14 ± 0.28
9,TATTTTATATTATCATGTACAAAAAAAAAGAAAAGA [XGTACX_site5379],7.9 ± 0.33
10,ATAAATAATTAGAATTGTACAAAAATTATATATATG [XGTACX_site5107],7.67 ± 0.34
11,AAAAGGAACGGACACACACACATATATATATATATA [CACACA_site5894],9.31 ± 0.2
12,TATGCAAATTAATAATGTACGAAATATTTATAATTT [XGTACX_site2324],7.75 ± 0.57
13,AATAAATTAGAAGGATGTACTTTGTTTAATATAGAG [XGTACX_site1943],7.83 ± 0.37
14,TAATATAATCTGAGTGCACACAAATAAATAAACATA [CACACA_site8032],10.5 ± 0.14
15,AGGTTATATATGAACAAAAATAAAATATTCATAGGC [TGCATGCA_negctrl_site46],7.67 ± 0.86
16,AACAAAATAAAACACACACACAAATGTACATATATA [CACACA_site2424],8.05 ± 0.14
17,TAGAAGCATCATTTTACACACATGCAAATGTAAACT [CACACA_site6973],7.91 ± 0.64
18,ATTTTGTATTGACGCTGTACAAACATTAATATAATA [XGTACX_site2496],7.77 ± 0.37
